Km data for one protein are collected here from ChEMBL document CHEMBL3526104.

In general, Km refers to the concentration of substrate that gives half-maximal velocity.

Substrate in series [1]: CC(=O)N1CCN([C@H]2CCN(C(=O)N(C)[C@H](C)c3cc(C(F)(F)F)cc(C(F)(F)F)c3)[C@@H](c3ccc(F)cc3C)C2)CC1
As to the kind of experiment: Drug metabolism in human liver microsomes assessed as CYP3A4-mediated GSK525060 formation after 30 mins by HPLC-MS/MS method. It is filed as ADME. Background: Liver microsomes are vesicles of endoplasmic reticulum, rich in cytochrome P450 enzymes.

Substrate in series [2]: CC(=O)N1CCN([C@H]2CCN(C(=O)N(C)[C@H](C)c3cc(C(F)(F)F)cc(C(F)(F)F)c3)[C@@H](c3ccc(F)cc3C)C2)CC1
As to the kind of experiment: Drug metabolism assessed as human recombinant CYP3A4-mediated GSK525060 formation after 30 mins by HPLC-MS/MS method. It is filed as ADME.

B1: Cytochrome P450 3A4 (Homo sapiens) (protein)
chain: MALIPDLAMETWLLLAVSLVLLYLYGTHSHGLFKKLGIPGPTPLPFLGNILSYHKGFCMFDMECHKKYGKVWGFYDGQQPVLAITDPDMIKTVLVKECYSVFTNRRPFGPVGFMKSAISIAEDEEWKRLRSLLSPTFTSGKLKEMVPIIAQYGDVLVRNLRREAETGKPVTLKDVFGAYSMDVITSTSFGVNIDSLNNPQDPFVENTKKLLRFDFLDPFFLSITVFPFLIPILEVLNICVFPREVTNFLRKSVKRMKESRLEDTQKHRVDFLQLMIDSQNSKETESHKALSDLELVAQSIIFIFAGYETTSSVLSFIMYELATHPDVQQKLQEEIDAVLPNKAPPTYDTVLQMEYLDMVVNETLRLFPIAMRLERVCKKDVEINGMFIPKGVVVMIPSYALHRDPKYWTEPEKFLPERFSKKNKDNIDPYIYTPFGSGPRNCIGMRFALMNMKLALIRVLQNFSFKPCKETQIPLKLSLGGLLQPEKPVVLKVESRDGTVSGA
B1: the Km in series [1] is 21.1 µM; in series [2], 10.1 µM.
